19 molecules from the supplement of paper PMC10369915 can be followed below.

The list shows a part of the results. No stated cut-off is given here; in the data, active = 3.2 or more and inactive = the rest. The signal is at background level for most entries.
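Further: displayed peptides selected on beads carrying the immobilized SH2 domain, with library peptides lacking any tyrosine serving as negative controls.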

The target of one assay is SHP2 C-SH2 domain E139D. The assay is described as follows: enrichment score (SH2-bound / input frequency) (ratio); bacterial display of known human phosphotyrosine sites (pTyr-Var adds point mutants) read by sequencing; higher = stronger binding; tyrosines were phosphorylated by kinases first. The settings on record: peptide library: pTyr-Var.
Consider GFWPRYVKVGS [NOG_Y172_R167G], for which the enrichment score was inactive: 0.65.
Still for that read-out and setting: for WIPIQYLIISE [NOG_Y222_P223L] the value was inactive: 2.36.
The same measure, in the same setting: under TSFSGYRFHRH [NKAPL_Y94_YF] stands inactive: 2.02; under AGIENYTSRFG [NKD2_Y256], inactive: 0.853; under SWSTSYSGFRF [NKAPL_Y91_YF], inactive: 1.66.
The same measure, in the same setting: for TSYSGYRYHRH [NKAPL_Y94] the value was inactive: 0.812; for MTFMFYRENLR [NLRP14_Y443_V441M_YF], inactive: 1.24.
On to GHGEEYPAAGA [NOTCH3_Y2221], for which the enrichment score is inactive: 0.51.
In the case of FLEKFYKFGCR [NNMT_Y25_S29C_YF], the enrichment score is inactive: 1.46.
For SLTRLCVGENA [NLRP3_Y861_Y861C], the enrichment score was inactive: 0.736.
Still for that read-out and setting: for AFEQQYSPIPR [NOX1_Y373] the value was inactive: 0.605; for PVGDAYKKKGL [NMNAT1_Y55], inactive: 0.374; for PVGDVYKKKGL [NMNAT1_Y55_A54V], inactive: 0.355.
As for WIPIQCPIISE [NOG_Y222_Y222C], the enrichment score is inactive: 1.07.
Take GLIPAYHRVIV [NMNAT1_Y64_M69V]: the enrichment score was inactive: 1.33.
In the case of GIPIQYPIISE [NOG_Y222_W217G], the enrichment score is inactive: 1.26.
Same read-out and setting: under MTFVFYRENLR [NLRP14_Y443_YF] stands inactive: 1.7; under VFAPDFIAGVS [NOB1_Y366_Y366F], inactive: 1.1; under YLEKYYKFGCR [NNMT_Y25_S29C], inactive: 1.48.

Another assay addresses SHP2 C-SH2 domain wild-type. The description is as above. The conditions noted are these: peptide library: pTyr-Var.
On to GFWPRYVKVGS [NOG_Y172_R167G], for which the enrichment score is inactive: 0.496.
Turning to WIPIQYLIISE [NOG_Y222_P223L], the enrichment score is inactive: 2.31.
For the molecule TSFSGYRFHRH [NKAPL_Y94_YF], the enrichment score is inactive: 1.5.
On the same count and under the same terms, under AGIENYTSRFG [NKD2_Y256] stands inactive: 0.741.
Same read-out and setting: under SWSTSYSGFRF [NKAPL_Y91_YF] stands inactive: 1.83.
Same read-out and setting: under TSYSGYRYHRH [NKAPL_Y94] stands inactive: 0.802; under MTFMFYRENLR [NLRP14_Y443_V441M_YF], inactive: 1.22.
In the case of GHGEEYPAAGA [NOTCH3_Y2221], the enrichment score was inactive: 0.416.
Regarding FLEKFYKFGCR [NNMT_Y25_S29C_YF], the enrichment score is inactive: 1.55.
Same read-out and setting: under SLTRLCVGENA [NLRP3_Y861_Y861C] stands inactive: 0.84; under AFEQQYSPIPR [NOX1_Y373], inactive: 0.607; under PVGDAYKKKGL [NMNAT1_Y55], inactive: 0.532.
The same measure, in the same setting: for PVGDVYKKKGL [NMNAT1_Y55_A54V] the value was inactive: 0.388.
On the same count and under the same terms, under WIPIQCPIISE [NOG_Y222_Y222C] stands inactive: 1.41; under GLIPAYHRVIV [NMNAT1_Y64_M69V], inactive: 1.35; under GIPIQYPIISE [NOG_Y222_W217G], inactive: 1.02.
Take MTFVFYRENLR [NLRP14_Y443_YF]: the enrichment score was inactive: 1.24.
For VFAPDFIAGVS [NOB1_Y366_Y366F], the enrichment score was inactive: 0.746.
As to YLEKYYKFGCR [NNMT_Y25_S29C], the enrichment score was inactive: 2.06.

For the next assay, the target named is SHP2 N-SH2 domain L43F. The assay is described as above. The conditions noted are these: peptide library: pTyr-Var.
With GFWPRYVKVGS [NOG_Y172_R167G], the enrichment score is inactive: 0.583.
Still for that read-out and setting: for WIPIQYLIISE [NOG_Y222_P223L] the value was inactive: 2.92; for TSFSGYRFHRH [NKAPL_Y94_YF], inactive: 1.79.
The same measure, in the same setting: for AGIENYTSRFG [NKD2_Y256] the value was inactive: 0.59; for SWSTSYSGFRF [NKAPL_Y91_YF], inactive: 1.7; for TSYSGYRYHRH [NKAPL_Y94], inactive: 0.696.
For MTFMFYRENLR [NLRP14_Y443_V441M_YF], the enrichment score was inactive: 1.25.
As for GHGEEYPAAGA [NOTCH3_Y2221], the enrichment score was inactive: 0.502.
For FLEKFYKFGCR [NNMT_Y25_S29C_YF], the enrichment score is inactive: 1.51.
With SLTRLCVGENA [NLRP3_Y861_Y861C], the enrichment score is inactive: 0.785.
Regarding AFEQQYSPIPR [NOX1_Y373], the enrichment score is inactive: 0.552.
The same measure, in the same setting: under PVGDAYKKKGL [NMNAT1_Y55] stands inactive: 0.581; under PVGDVYKKKGL [NMNAT1_Y55_A54V], inactive: 0.573; under WIPIQCPIISE [NOG_Y222_Y222C], inactive: 0.866.
On the same count and under the same terms, for GLIPAYHRVIV [NMNAT1_Y64_M69V] the value was inactive: 1.13.
Still for that read-out and setting: under GIPIQYPIISE [NOG_Y222_W217G] stands inactive: 1.09; under MTFVFYRENLR [NLRP14_Y443_YF], inactive: 1.28; under VFAPDFIAGVS [NOB1_Y366_Y366F], inactive: 1.01.
For YLEKYYKFGCR [NNMT_Y25_S29C], the enrichment score was inactive: 1.52.

The target in the next assay is SHP2 N-SH2 domain T42A. The assay is described as above. The settings on record: peptide library: pTyr-Var.
On to GFWPRYVKVGS [NOG_Y172_R167G], for which the enrichment score is inactive: 0.53.
Still for that read-out and setting: for WIPIQYLIISE [NOG_Y222_P223L] the value was inactive: 3.04; for TSFSGYRFHRH [NKAPL_Y94_YF], inactive: 1.37; for AGIENYTSRFG [NKD2_Y256], inactive: 0.556.
As for SWSTSYSGFRF [NKAPL_Y91_YF], the enrichment score is inactive: 1.62.
Still for that read-out and setting: for TSYSGYRYHRH [NKAPL_Y94] the value was inactive: 0.701; for MTFMFYRENLR [NLRP14_Y443_V441M_YF], inactive: 1.34.
In the case of GHGEEYPAAGA [NOTCH3_Y2221], the enrichment score was inactive: 0.404.
As for FLEKFYKFGCR [NNMT_Y25_S29C_YF], the enrichment score is inactive: 1.24.
With SLTRLCVGENA [NLRP3_Y861_Y861C], the enrichment score was inactive: 0.662.
On the same count and under the same terms, for AFEQQYSPIPR [NOX1_Y373] the value was inactive: 0.547; for PVGDAYKKKGL [NMNAT1_Y55], inactive: 0.432; for PVGDVYKKKGL [NMNAT1_Y55_A54V], inactive: 0.402.
In the case of WIPIQCPIISE [NOG_Y222_Y222C], the enrichment score was inactive: 1.06.
As for GLIPAYHRVIV [NMNAT1_Y64_M69V], the enrichment score was inactive: 1.39.
For GIPIQYPIISE [NOG_Y222_W217G], the enrichment score was inactive: 1.05.
Same read-out and setting: under MTFVFYRENLR [NLRP14_Y443_YF] stands inactive: 1.42.
On the same count and under the same terms, for VFAPDFIAGVS [NOB1_Y366_Y366F] the value was inactive: 0.955.
For YLEKYYKFGCR [NNMT_Y25_S29C], the enrichment score was inactive: 1.78.

The target in a further assay is SHP2 N-SH2 domain T52S. The assay is described as above. The settings on record: peptide library: pTyr-Var.
As to GFWPRYVKVGS [NOG_Y172_R167G], the enrichment score was inactive: 0.711.
Regarding WIPIQYLIISE [NOG_Y222_P223L], the enrichment score was active: 3.65.
On to TSFSGYRFHRH [NKAPL_Y94_YF], for which the enrichment score was inactive: 1.61.
Same read-out and setting: for AGIENYTSRFG [NKD2_Y256] the value was inactive: 0.669.
The same measure, in the same setting: for SWSTSYSGFRF [NKAPL_Y91_YF] the value was inactive: 1.76.
As for TSYSGYRYHRH [NKAPL_Y94], the enrichment score was inactive: 0.796.
On the same count and under the same terms, for MTFMFYRENLR [NLRP14_Y443_V441M_YF] the value was inactive: 1.26.
Turning to GHGEEYPAAGA [NOTCH3_Y2221], the enrichment score is inactive: 0.451.
As for FLEKFYKFGCR [NNMT_Y25_S29C_YF], the enrichment score is inactive: 1.53.
SLTRLCVGENA [NLRP3_Y861_Y861C]: the enrichment score is inactive: 0.689.
Take AFEQQYSPIPR [NOX1_Y373]: the enrichment score was inactive: 0.664.
Same read-out and setting: under PVGDAYKKKGL [NMNAT1_Y55] stands inactive: 0.411; under PVGDVYKKKGL [NMNAT1_Y55_A54V], inactive: 0.346; under WIPIQCPIISE [NOG_Y222_Y222C], inactive: 0.901.
In the case of GLIPAYHRVIV [NMNAT1_Y64_M69V], the enrichment score was inactive: 1.39.
On the same count and under the same terms, for GIPIQYPIISE [NOG_Y222_W217G] the value was inactive: 1.
On the same count and under the same terms, for MTFVFYRENLR [NLRP14_Y443_YF] the value was inactive: 1.87; for VFAPDFIAGVS [NOB1_Y366_Y366F], inactive: 1.13; for YLEKYYKFGCR [NNMT_Y25_S29C], inactive: 1.69.

The target in a further assay is SHP2 N-SH2 domain wild-type. The description is as above. The settings on record: peptide library: pTyr-Var.
Take GFWPRYVKVGS [NOG_Y172_R167G]: the enrichment score was inactive: 0.699.
Consider WIPIQYLIISE [NOG_Y222_P223L], for which the enrichment score is inactive: 2.43.
Consider TSFSGYRFHRH [NKAPL_Y94_YF], for which the enrichment score is inactive: 1.4.
With AGIENYTSRFG [NKD2_Y256], the enrichment score is inactive: 0.612.
Same read-out and setting: for SWSTSYSGFRF [NKAPL_Y91_YF] the value was inactive: 1.47; for TSYSGYRYHRH [NKAPL_Y94], inactive: 0.619.
Take MTFMFYRENLR [NLRP14_Y443_V441M_YF]: the enrichment score was inactive: 1.36.
Still for that read-out and setting: for GHGEEYPAAGA [NOTCH3_Y2221] the value was inactive: 0.51; for FLEKFYKFGCR [NNMT_Y25_S29C_YF], inactive: 1.5; for SLTRLCVGENA [NLRP3_Y861_Y861C], inactive: 0.78.
The same measure, in the same setting: under AFEQQYSPIPR [NOX1_Y373] stands inactive: 0.757.
Still for that read-out and setting: for PVGDAYKKKGL [NMNAT1_Y55] the value was inactive: 0.644; for PVGDVYKKKGL [NMNAT1_Y55_A54V], inactive: 0.406; for WIPIQCPIISE [NOG_Y222_Y222C], inactive: 1.05.
Turning to GLIPAYHRVIV [NMNAT1_Y64_M69V], the enrichment score was inactive: 1.38.
On the same count and under the same terms, under GIPIQYPIISE [NOG_Y222_W217G] stands inactive: 1.1; under MTFVFYRENLR [NLRP14_Y443_YF], inactive: 1.37; under VFAPDFIAGVS [NOB1_Y366_Y366F], inactive: 1.13.
In the case of YLEKYYKFGCR [NNMT_Y25_S29C], the enrichment score is inactive: 2.29.
